The values that follow come from PubChem BioAssay AID463173 (ICCB-Longwood Screening Facility, Harvard Medical School, 2010).

About 1,700 (3.3%) of roughly 52,000 compounds were called active. Rule as the data show it: active = survival mostly below about 52% (no sharp cut-off); inactive = mostly above about 56%. This is one part of the list.

The subject of the assay is Wild type. Briefly: growth inhibition of S. aureus wild type versus tarO mutant, primary screen, teichoic acid synthesis inhibitors, RN4220, OD600 (AID 463173). The conditions noted are these: S. aureus RN4220 wild type/DeltatarO growth, OD600, 18 h, active compounds read low, screened at 18.75 µg/mL (by protocol).
Turning to `Cc1nn(CCC(=O)NCc2cccc(Br)c2)c(=O)c2nn(-c3ccccc3)c(C)c12`, the survival is inactive: 101%.
Consider `CCn1c(=O)c2sccc2n2c(CCC(=O)N3CCN(c4ccccc4OC)CC3)nnc12`, for which the survival is inactive: 129%.
With `CC(C)NC(=O)Cn1ccc2cc(S(=O)(=O)N3CCCCCC3)ccc21`, the survival was inactive: 90%.
The figure for `CCCOc1ccc(C(=O)NCC(c2ccc(OC)cc2)N2CCCCC2)cc1` (configuration not stated) is inactive: 89%; for `Cc1cccc(OCCCSc2nc(-c3ccc(C(C)(C)C)cc3)nc3cc(=O)[nH]n23)c1C` it is inactive: 74%; for `CCOC(=O)C1CCN(C(=O)CN(c2cc(Cl)ccc2OC)S(C)(=O)=O)CC1` it is inactive: 109%.
Turning to `CC(NC(=O)c1ccc(CSc2nc3ccncc3n2Cc2ccc(F)cc2)cc1)c1ccccc1` (configuration not stated), the survival was inactive: 92%.
For the molecule `O=S(=O)(c1ccccc1)c1nc(-c2cccs2)oc1N1CCCCC1`, the survival was inactive: 123%.
Then `COC(=O)CC1=C(C(=O)OC)C(c2ccc(C(=O)OC)cc2)C(C#N)=C(N)O1` (configuration not stated), with inactive: 110%.
Then `c1ccc2c(c1)CNc1ccccc1C2`, with inactive: 100%; and `CCCCCn1c(=O)[nH]c2cc(C(=O)NCc3ccc(F)cc3)ccc2c1=O`, with inactive: 80%; and `Cc1cccc(-n2c(=O)c3c(c4cc(C)ccc4n3C)n(CC(=O)Nc3ccccc3Cl)c2=O)c1`, with inactive: 74%.
`COCCNC(=O)c1ccc2c(c1)N(Cc1ccc(C(F)(F)F)cc1)C(=O)c1ccccc1S2`: the survival was inactive: 84%.
Then `CC(C)c1ccc(S(=O)(=O)c2nnn3c2nc(N2CCOCC2)c2sccc23)cc1`, with inactive: 104%.
Take `CC1CCN(S(=O)(=O)c2ccc3c(ccn3CC(=O)NCc3ccc(N(C)C)cc3)c2)CC1`: the survival was inactive: 98%.
Then `Cc1ccccc1OCC(=O)Nc1c(C)ccc2nsnc12`, with inactive: 85%; and `Cc1cc(C)n2ncc(C(=O)Nc3cccc(C(F)(F)F)c3)c2n1`, with inactive: 110%; and `Cc1c(C(=O)Nc2ccccc2Br)oc2ccc(S(=O)(=O)N3CCOCC3)cc12`, with inactive: 113%.
The figure for `CCC1CN(C(=O)N2CCC(C(=O)N3CCN(c4ccc(F)cc4)CC3)CC2)c2ccccc2O1` (configuration not stated) is inactive: 97%; for `CCCCc1nn2c(=O)cc(COC(=O)C(C)Oc3ccccc3)nc2s1` (configuration not stated) it is inactive: 105%.
Take `COc1ccc(CCC(=O)NCc2nc3cccnc3n2Cc2cccc(OC)c2)cc1`: the survival was inactive: 73%.
As to `COc1ccc(Cl)cc1NC(=O)Cn1nc(C(F)(F)F)c2c1CCC2`, the survival is inactive: 84%.
The figure for `COc1ccc(NS(=O)(=O)c2ccc3c(c2)CCCN3C(=O)C2CCC2)cc1OC` is inactive: 119%.
The figure for `Cc1ccc(NC(=O)C2CCN(C(=O)c3cnn(-c4ccccc4)c3-n3cccc3)CC2)cc1` is inactive: 129%; for `CCOC(=O)N1CCc2c(sc3c2c(=O)n(-c2ccc(CC)cc2)c(=O)n3CC(=O)c2ccccc2)C1` it is inactive: 87%.
Turning to `CC(C)CNC(=O)c1c(-c2ccccc2)c(-c2ccccc2)nn(C)c1=O`, the survival was inactive: 85%.
`COc1ccc2c(c1)CC(NC(=O)Nc1ccc(NC(C)=O)cc1)CO2` (configuration not stated): the survival was inactive: 121%.
The figure for `Cc1ccc(S(=O)(=O)NC2CCCCC2)c2nsnc12` is inactive: 129%; for `COc1ccccc1CNC(=O)C1CCN(Cc2cc3ccccc3n2Cc2cccc(C)c2)CC1` it is inactive: 54%.
`C[n+]1cccc(O)c1I`: the survival is inactive: 102%.
The figure for `Cc1ccccc1Cn1c(=O)n(CCCCC(=O)NCc2ccccc2Cl)c(=O)c2ccccc21` is inactive: 96%; for `O=C(NCc1ccccc1Cl)c1ccc(NC(=O)c2nsc3ccccc23)cc1` it is inactive: 66%.
Then `O=C(CSc1nnc(-c2ccncc2)n1-c1ccccc1)Nc1ccc(Br)cc1`, with inactive: 73%.
Regarding `CCOc1ccc2nc(N3CCC(C(=O)Nc4ccc(Br)cc4F)CC3)sc2c1`, the survival was inactive: 90%.
Turning to `CCOc1cc(C)c(C(C)C)cc1S(=O)(=O)n1ccnc1CC`, the survival is active: -11%.
Turning to `CCOc1ccc(NC(=O)C2CCN(S(=O)(=O)c3ccc4c(c3)oc(=O)n4C)CC2)cc1`, the survival was inactive: 92%.
The figure for `O=C1S/C(=C/c2ccccc2)C(=O)N1CO` is inactive: 113%; for `CC(=O)N1CCOc2cc(S(=O)(=O)Nc3cc(C(F)(F)F)ccc3Cl)c(C)cc21` it is inactive: 93%.
Regarding `CCCNC(=O)c1c(NC(=O)c2ccc(C)cc2)sc2c1CCCCC2`, the survival was inactive: 82%.
The figure for `CCSc1ncc(Cl)c(C(=O)N(Cc2ccc(C(C)(C)C)cc2)C2CCS(=O)(=O)C2)n1` (configuration not stated) is inactive: 76%.
With `CCOC(=O)Nc1cccc(C(=O)O)c1`, the survival was inactive: 103%.
Regarding `COc1ccc2c(c1)c1c(c(=O)n(Cc3ccccc3)c(=O)n1Cc1ccccc1)n2C`, the survival was active: -3%.
Regarding `O=S(=O)(NC1CCCC1)c1ccc(-n2cnnn2)cc1`, the survival is inactive: 101%.
The figure for `CCOC(=O)c1cccc(NC(=O)Nc2ccc3c(c2)N(C)C(=O)c2ccccc2S3)c1` is inactive: 97%; for `CCOC(=O)c1c(C)oc2nc(C)nc(NCCCN3CCN(c4cc(Cl)ccc4C)CC3)c12` it is inactive: 72%.
The figure for `Cc1ccc(-c2noc(-c3nnn(CC(=O)Nc4cccc(C(F)(F)F)c4)c3N)n2)cc1` is inactive: 76%; for `O=C(NCCCN1CCN(c2ccccc2F)CC1)C1COc2ccccc2C1` (configuration not stated) it is inactive: 101%; for `Clc1c(-c2nnc(-c3cccs3)o2)sc2ccccc12` it is inactive: 103%.
Then `CCCS(=O)(=O)N1CCN(C(=O)COc2cccc(C)c2)CC1`, with inactive: 121%; and `Cc1ccc(C(=O)NCC(=O)OCc2cc(=O)n3nc(C4CC4)sc3n2)cc1`, with inactive: 86%.
Take `COc1ccc(S(=O)(=O)Cc2ccc(C(=O)N3CCN(c4cc(C)ccc4C)CC3)o2)cc1`: the survival is inactive: 144%.
Then `CS(=O)(=O)N1C(=O)CCC1=O`, with inactive: 105%; and `O=C(O)c1cccnc1SCc1cccc(Cl)c1`, with inactive: 71%; and `O=C(Nc1cccc(-c2nc3ccccc3[nH]2)c1)c1c(F)cccc1F`, with inactive: 63%.
In the case of `O=C(NN=C1CCCC1)c1cc(-c2ccccc2)n[nH]1`, the survival is inactive: 121%.
For `CCOc1ccc(/C=C/C(=O)NCc2ccco2)cc1OC`, the survival is inactive: 103%.
On to `Cc1ccccc1NC(=O)C(C)Sc1nc2ccccc2c(=O)n1C` (configuration not stated), for which the survival was inactive: 100%.
With `CCc1ccc(C2c3c(-c4cc(C)ccc4O)n[nH]c3C(=O)N2CCO)cc1` (configuration not stated), the survival was inactive: 78%.
The figure for `Cn1c(SCC(=O)N2CCOCC2)ncc(C(=O)Nc2ccc(F)cc2)c1=O` is inactive: 72%; for `CCOC(=O)c1c(S(=O)(=O)NCC(=O)Nc2cccc(SC)c2)c(C)n(C)c1C` it is inactive: 70%; for `CNc1nc(SC)nc(N(C)C#N)n1` it is inactive: 109%.
Then `CCCSc1nc2sc3c(c2c(=O)n1-c1ccc(C)cc1)CCCC3`, with active: 5%.
Then `CC(c1ccccc1)n1cc(C(=O)NCCN2CCCCCC2)nn1` (configuration not stated), with inactive: 119%.
Consider `CC1=C(c2ccc(C(C)C)cc2)S(=O)(=O)NC1=NCc1ccc(OC(C)C)cc1`, for which the survival was inactive: 89%.
Turning to `COc1ccc(NC(=O)CCCS(=O)(=O)c2nc(-c3ccccc3OC)cc(C(F)(F)F)n2)c(OC)c1`, the survival is inactive: 76%.
Then `CC1Cc2ccccc2N1C(=O)CSc1ncccc1C(=O)O` (configuration not stated), with inactive: 100%.
The figure for `COc1ccc(C(C)NC(=O)CN(c2cc(OC)ccc2OC)S(=O)(=O)c2ccccc2)cc1` (configuration not stated) is inactive: 76%; for `CC1CCN(CCCNC(=O)CN2C(=O)CSc3ccc(S(=O)(=O)N4CCCCC4)cc32)CC1` it is inactive: 78%; for `Cc1ccc(CNC(=O)C2CCCN(c3nc4ccccc4n4cccc34)C2)cc1` (configuration not stated) it is inactive: 86%.
The figure for `COC(=O)c1ccc(NC(=O)Cn2cncn2)cc1` is inactive: 107%; for `O=C(c1cccs1)N1CCCc2cc(NS(=O)(=O)c3ccc(Br)cc3)ccc21` it is inactive: 68%.
`CCc1cccc(C)c1NC(=O)C1CCN(S(=O)(=O)c2cc(Br)cc3c2N(C(C)=O)CC3)CC1`: the survival was inactive: 86%.
Regarding `COCCn1c(CNC(=O)c2ccccc2C)nc2cccnc21`, the survival was inactive: 69%.
Take `Cc1ccc(C)c(CN2CCC(CNC(=O)C(CC(C)C)N3Cc4ccccc4C3=O)CC2)c1` (configuration not stated): the survival was inactive: 133%.
The figure for `COc1ccc(NC(=O)Nc2cccc(-c3noc(C)n3)c2)cc1` is inactive: 134%; for `Brc1cccc(-c2nn(-c3ccccc3)c3c2cnc2cc4c(cc23)OCO4)c1` it is inactive: 86%; for `COc1ccc(-n2c(CC3C(=O)Nc4ccc(C)cc43)nc3ccccc3c2=O)cc1` (configuration not stated) it is inactive: 81%.
Then `O=C(NCc1ccccc1Cl)c1ccc2c(c1)ncn2-c1cccc(F)c1`, with inactive: 64%; and `COc1cccc(-n2ccnc2SCC(=O)Nc2cccc3ccccc23)c1`, with inactive: 152%.
The figure for `c1ccc(-n2cnnn2)cc1` is inactive: 114%.
In the case of `O=c1c2c3c(sc2nnn1CCCCOc1ccc(Cl)cc1)CCCC3`, the survival is inactive: 120%.
Then `CCCSC1=NC2(CCN(C(=O)NC3CCCCC3)CC2)N=C1c1ccc(OC)cc1`, with inactive: 71%.
Then `N#CC1=C2SCCN2C(=O)C(C#N)C12CCCCC2` (configuration not stated), with inactive: 112%.
For the molecule `COc1cc(-c2noc(-c3cc4cccc(C)c4oc3=O)n2)cc(OC)c1OC`, the survival was inactive: 101%.
The figure for `COc1ccc(-c2nsc(NC(=O)c3oc4ccc(Cl)cc4c3C)n2)cc1` is inactive: 85%; for `CCOc1ccccc1-n1c(N)c(C(=O)OC)c2nc3ccccc3nc21` it is inactive: 81%.
As to `O=C(Nc1ccc(F)cc1)c1nc(SCc2ccccc2F)ncc1Cl`, the survival was inactive: 118%.
On to `COc1ccc(-c2noc(C3CCCN(C(=O)Nc4ccccc4)C3)n2)cc1` (configuration not stated), for which the survival was inactive: 109%.
The figure for `Cc1nc(-c2cccc(F)c2)sc1CCNC(=O)Cc1ccc(F)cc1` is inactive: 136%.
Take `N#C/C(=C/c1ccc(O)cc1)c1nc(-c2ccc(-c3ccccc3)cc2)cs1`: the survival is active: 0%.
With `Cc1ccc(OCCn2c(CNc3ccccc3C)nc3ccccc32)cc1`, the survival is inactive: 57%.
As to `Cn1c(C(=O)NCc2ccccc2Cl)cc2sc(Cl)cc21`, the survival was inactive: 54%.
